Reference: the BET-seq Pho4 binding data (Le et al. 2018)
This is one part of the list. These are noisy estimates, calculated here from bound and input reads.

biological target: T1, Pho4 (S. cerevisiae) (UniProt P07270); assay: relative binding free energy (BET-seq); higher = weaker binding; conditions: reference: library average
T1 sequence: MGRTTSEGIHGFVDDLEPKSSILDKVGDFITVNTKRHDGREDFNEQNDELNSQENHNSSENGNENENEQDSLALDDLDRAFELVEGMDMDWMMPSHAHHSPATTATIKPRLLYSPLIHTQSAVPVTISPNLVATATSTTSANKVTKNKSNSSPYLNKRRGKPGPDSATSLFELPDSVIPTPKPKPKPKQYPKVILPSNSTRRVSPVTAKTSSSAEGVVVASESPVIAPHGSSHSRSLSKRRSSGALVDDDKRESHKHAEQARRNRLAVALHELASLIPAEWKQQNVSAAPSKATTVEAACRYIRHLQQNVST

Relative binding free energy, 0.37 kcal/mol:
GTGGACACGTGAAGTT

Relative binding free energy, 0.1 kcal/mol:
GTCGACACGTGTTGGT
GTCGTCACGTGCGGTG
ACGGTCACGTGGTGAG

Relative binding free energy, -0.03 kcal/mol:
CAGATCACGTGGGGAG
TGAGTCACGTGGGGCA
CAGGGCACGTGAATGG
TTATACACGTGTGAGT

Relative binding free energy, -0.2 kcal/mol:
AGCAGCACGTGGGGTA
ATTGCCACGTGCGGTG
AACGTCACGTGGGGTA
TGTGCCACGTGGTATA

Relative binding free energy, 0.05 kcal/mol:
GTTGTCACGTGGTGCC
AAGCACACGTGTGGTG
CTTGGCACGTGTAATT
TTTCGCACGTGTAGTG
AGATCCACGTGTGTTT
ATGTGCACGTGCATTT
GATATCACGTGGTGTA
TTATGCACGTGGACCG

Relative binding free energy, 0.06 kcal/mol:
TTGGTCACGTGGGGAC
ATTTGCACGTGTCTAT
TGAAGCACGTGTACGG
ACTAGCACGTGTGGGA
CGTGTCACGTGGTAGT
TGATCCACGTGTGTGG
GTGATCACGTGTGTGC

Relative binding free energy, -0.18 kcal/mol:
CAGGGCACGTGGGTAA

Relative binding free energy, 0.4 kcal/mol:
TTCTTCACGTGTTCTA
GGCTTCACGTGGAAAG

Relative binding free energy, -0.06 kcal/mol:
TTTCGCACGTGTTGCG
GATTCCACGTGTTTGT
GTTGGCACGTGGTGTC
GGGGGCACGTGGTATT
GCTAGCACGTGGCGTG

Relative binding free energy, 0.04 kcal/mol:
GTGGGCACGTGTTGAA
GGGGACACGTGGACTT
TTGTACACGTGTGGTG
TTGTTCACGTGGACAT

Relative binding free energy, 0.28 kcal/mol:
TTAAACACGTGATGGA

Relative binding free energy, -0.01 kcal/mol:
TGGTCCACGTGGAGAG
TGAATCACGTGCAGTG
TTCGCCACGTGTTTGT

Relative binding free energy, 0.19 kcal/mol:
TAAATCACGTGGAGAT
GTGTACACGTGTGAGT
TACGTCACGTGATTAT
ATATTCACGTGCGTTA
TGGGCCACGTGAGTAG
TTTATCACGTGGCGGT
TATTTCACGTGCTCTG

Relative binding free energy, 0.18 kcal/mol:
TCTTTCACGTGGTAGG
TGGGACACGTGGAATA
TGCTTCACGTGGTTCT

Relative binding free energy, -0.28 kcal/mol:
CGGTGCACGTGGGTCA
TTTCCCACGTGGGTGT

Relative binding free energy, 0.23 kcal/mol:
GGTGGCACGTGACTTA
AGGTTCACGTGCTTGT
GGGTACACGTGTAAGA
TGAATCACGTGTGAAG

Relative binding free energy, -0.19 kcal/mol:
TTTGGCACGTGGCCTG
GAGCGCACGTGGGATG

Relative binding free energy, 0.21 kcal/mol:
ATTAGCACGTGAAGGA
AATTTCACGTGTAATG
AATGTCACGTGATTCG
CTTTTCACGTGGTTAG
CATCTCACGTGTTGGG
CTATTCACGTGTTAGT

Relative binding free energy, 0.41 kcal/mol:
GGACTCACGTGATAGG

Relative binding free energy, 0.09 kcal/mol:
GTTTACACGTGCTTTG
GGTTACACGTGGATTG
TTTTGCACGTGGATAT
TTTGTCACGTGAATTA
GGCTGCACGTGCGGTA
TATAGCACGTGACAGG

Relative binding free energy, -0.23 kcal/mol:
GGTGGCACGTGGGTCA

Relative binding free energy, 0.36 kcal/mol:
TATTTCACGTGTGTGG

Relative binding free energy, -0.1 kcal/mol:
TCATGCACGTGTTGGA
AGGTGCACGTGCGGGG
TTTTGCACGTGGCGAA
AGGGGCACGTGGACAT

Relative binding free energy, 0.02 kcal/mol:
GGGGCCACGTGTAGGG
GGTGTCACGTGTCATT
AGGGACACGTGGTCAA
ATCGGCACGTGTGGGA

Relative binding free energy, -0.21 kcal/mol:
TAACACACGTGGGGTG

Relative binding free energy, -0.14 kcal/mol:
TGGCCCACGTGGTGCG
AGGTGCACGTGCGTAT
TGGGCCACGTGGCTGA
CTATGCACGTGGTTTA

Relative binding free energy, 0.13 kcal/mol:
GGTTACACGTGGCGGT
GGATACACGTGGCGTT
TGTATCACGTGGCTGC

Relative binding free energy, -0.15 kcal/mol:
TTTGGCACGTGCCTTA
GTAGGCACGTGCTTGA
TGAGCCACGTGCGGGG
TAATGCACGTGGTGCT
CGTAACACGTGGAGTG
ATAGTCACGTGGGTGA

Relative binding free energy, -0.38 kcal/mol:
TGCGGCACGTGGGTGC

Relative binding free energy, 0.39 kcal/mol:
TTGTTCACGTGTAAGC

Relative binding free energy, 0.31 kcal/mol:
TTCCTCACGTGTGTTT

Relative binding free energy, -0.04 kcal/mol:
CGGAGCACGTGTAGTT
TGACACACGTGTGTGT
GGTAGCACGTGGATTG
TCAAGCACGTGTTGTA

Relative binding free energy, 0.35 kcal/mol:
AGTTTCACGTGAGGGC

Relative binding free energy, 0.33 kcal/mol:
AATGTCACGTGAGTGT
AGTCTCACGTGAGGGA
AGTTTCACGTGATAGG
GTCTGCACGTGAATTG

Relative binding free energy, -0.11 kcal/mol:
GGCGACACGTGCGTGG
TTGCACACGTGCGTGT
GAGGGCACGTGGTTGC

Relative binding free energy, -0.09 kcal/mol:
GGGTGCACGTGCGGTA
GAGGACACGTGGGATG
GTTAACACGTGTATTG
GGGTACACGTGCGTCG
TGATCCACGTGGTTGT
TAGGGCACGTGATTGA

Relative binding free energy, 0.38 kcal/mol:
TTATTCACGTGAGTCG
TTATTCACGTGAAATT

Relative binding free energy, -0.16 kcal/mol:
CCGGTCACGTGGGGGT
AATCGCACGTGGTGTG
CCTTGCACGTGGGTTG
CGGTACACGTGGGTGA

Relative binding free energy, 0.08 kcal/mol:
ATTGTCACGTGCGAAT
GTCGTCACGTGTGGTC
AATTACACGTGTTTAT

Relative binding free energy, -0.25 kcal/mol:
GTGGGCACGTGGCCGT

Relative binding free energy, 0.32 kcal/mol:
ATGGACACGTGAGTCT
TTACTCACGTGTTGGA

Relative binding free energy, -0.24 kcal/mol:
CGTTGCACGTGGGCAT

Relative binding free energy, -0.12 kcal/mol:
TTAGCCACGTGGTAGG
CCTGGCACGTGGGATG
TAATGCACGTGTCGTG
TGTTGCACGTGCTTAG

Relative binding free energy, 0.07 kcal/mol:
TAGTACACGTGTAAGT
AGTACCACGTGTTGAG
GGCGGCACGTGTAAGG

Relative binding free energy, 0.16 kcal/mol:
TGGGACACGTGTTACT
ACATACACGTGGATGT
GGTGCCACGTGAACGG
GGAGTCACGTGTCAAG
TCAGTCACGTGGAGGG
GGGATCACGTGTTCTG

Relative binding free energy, 0.17 kcal/mol:
TCGGACACGTGAGTGT
TGGTGCACGTGAAGCT
TGTTTCACGTGGGAGA
CGGGTCACGTGTTATT

Relative binding free energy, 0.11 kcal/mol:
GTTTACACGTGTGCGA
TATGTCACGTGTCAAT
GTTCGCACGTGATGGT
CTGGTCACGTGCCGGG

Relative binding free energy, 0.24 kcal/mol:
GGCTACACGTGTGCTG
TGATTCACGTGCAATT
TGGGTCACGTGACGCG
AACTTCACGTGTTATG

Relative binding free energy, 0.27 kcal/mol:
ATATACACGTGAAGTG
TAGTTCACGTGATTCG

Relative binding free energy, 0.2 kcal/mol:
TACGTCACGTGGAGGA
ATGTCCACGTGATTTT
CTGCTCACGTGGTGGG
TTTTCCACGTGTGTTT

Relative binding free energy, 0.3 kcal/mol:
AATTACACGTGTCGTA
GGGTACACGTGAAGTA
GATTTCACGTGTTCGG
AAGTTCACGTGATGTC

Relative binding free energy, 0.01 kcal/mol:
CAAGGCACGTGACGGG
TTGGCCACGTGAGCGG
TTGGGCACGTGATTTT
GGGGCCACGTGTATAT

Relative binding free energy, 0.14 kcal/mol:
GTGGTCACGTGCTAAG
TTCGACACGTGTAAGG
ATGTGCACGTGGAATT

Relative binding free energy, 0.44 kcal/mol:
AAGAACACGTGAATGG

Relative binding free energy, 0.03 kcal/mol:
TGGTGCACGTGCGGGC
GGGGCCACGTGTTTTT
CGTTACACGTGGCGTT
CTTCTCACGTGGGGTT
GTGGCCACGTGTGAGT
GGAGTCACGTGCGTGA
CGCTGCACGTGTGTTT

Relative binding free energy, -0.08 kcal/mol:
TGTGTCACGTGGGGAT
TGAGGCACGTGTGGAC
ATGAGCACGTGGCTGG
GGAAGCACGTGGCTTG
TAGGTCACGTGGGGCT

Relative binding free energy, 0.26 kcal/mol:
TGATTCACGTGGTACG
ATCTTCACGTGGTATA

Relative binding free energy, -0.26 kcal/mol:
AGGTGCACGTGGGGCA
AAATGCACGTGGGCTT
TGGGGCACGTGGGCCC

Relative binding free energy, -0.13 kcal/mol:
GTAGGCACGTGGGAGG
TTCGGCACGTGTAGTT
TTTGGCACGTGTTGCT
AGACGCACGTGGTGTA
CGTGGCACGTGGTGGG

Relative binding free energy, -0.07 kcal/mol:
TTGGGCACGTGGATCA
TGTGGCACGTGTCGCT
ATGGGCACGTGTATAA
AAATGCACGTGGTAGT
AGGCGCACGTGTAGTT

Relative binding free energy, 0.12 kcal/mol:
GTATACACGTGCGGTG
TGGCACACGTGTCAGG

Relative binding free energy, 0.22 kcal/mol:
AGTTTCACGTGGGAGG
ATAAACACGTGTGATT
CGTTTCACGTGTGGAT

Relative binding free energy, 0.25 kcal/mol:
ATGGTCACGTGGATAC
AAGTACACGTGGCGGT

Relative binding free energy, 0.15 kcal/mol:
AATTACACGTGTTGAT
GATAGCACGTGAGGTT
TAGTTCACGTGTCTTT
ATTGTCACGTGTGGGG
GGTATCACGTGTGGCA
GCGCGCACGTGAGTTG
TGGTTCACGTGGTCAA
AGTTTCACGTGGCTAG
TGTATCACGTGCGAGA

Relative binding free energy, -0.02 kcal/mol:
GTGAACACGTGGTTGT
ATAGCCACGTGTTGTT
AGATGCACGTGGAGGT
TACTGCACGTGTGTTA

Relative binding free energy, -0.05 kcal/mol:
CGTGGCACGTGATCGT
AATGTCACGTGGTGTA
ATTGTCACGTGGCGGT
ATTGTCACGTGGTTAC

Relative binding free energy, 0 kcal/mol:
TATGTCACGTGTTCTA
TTATCCACGTGTGCGT
GTTTGCACGTGCAGTG
AGGTACACGTGGTGGG
